# The campaign covered roughly 410,000 compounds. About 530 (0.13%) were called active. This list was built around the results that the source calls inconclusive (neither active nor inactive); the mix of calls is not that of the screen. Calls come from the whole dose curve; as a rule, active = well fitted inhibition curve with a large enough effect; inconclusive = small, poorly fitted or top-dose-only effect, or another doubt; inactive = no such curve, though single readings can be large or run the other way. A potency beside an inconclusive call is a rough fit, not a confirmed value.
# Assay: qHTS of GLP-1 Receptor Inverse Agonists: Cytotox Screen
# Settings: HEK293 cAMP-luciferase reporter cells, luminescence, 24 h; activity change, negative = inhibition: at 38.3 µM (top of the series) unless noted
# Summary of the method: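 1536-well qHTS counterscreen of the MLSMR; 200 cells/uL, 12 h pre-incubation, 23 nL cpd, 24 h at 37 deg C 5% CO2, luciferase detection reagent, 12 min RT, luminescence. Inhibition = undesired.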
# % is set by controls: 0 for no effect and ±100 for the full control effect; potency is the fitted concentration of half-maximal effect.
Structure (SMILES),Potency,"activity change, negative = inhibition"
COc1cc(-c2noc(C)c2C#CC2(N)CCCCC2)cc(OC)c1OC,"inconclusive: 3.16 µM [inhibitor, full curve]",
CCOc1ccc(-c2c(C)nn3c(C)c(C(=O)NCC(C)c4ccccc4)cnc23)cc1OCC (stereo unspecified),,inactive: -9.45%
COc1ccc(Cc2nc3ccc(C(=O)N4CCCCC4CO)cc3o2)cc1OC (stereo unspecified),,inactive: 4.58%
CCCc1ccc2oc(C(=O)NCCN3CCCC(C(N)=O)C3)c(C)c2c1 (stereo unspecified),,inactive: 32.2%
Cc1ccc(OCCCCN2CCCCC2)c(Br)c1,"inconclusive: 28.2 µM [inhibitor, single point]",
COc1cccc(C(=O)Nc2ccc(N3CCN(C(=O)c4ccco4)CC3)cc2)c1,"inconclusive: 14.1 µM [inhibitor, partial curve, poor fit]",
COc1ccc(C(CNC(=O)c2cccc(S(=O)(=O)Nc3ccccc3Cl)c2)N2CCOCC2)cc1 (stereo unspecified),"inconclusive: 28.2 µM [inhibitor, single point]",
O=C(Nc1ccccc1C(F)(F)F)c1noc2c1CCCCC2,,inactive: 0%
CC(C)N(CCO)C(=O)CCc1nnc(CCCc2ccccc2)o1,,inactive: 8.81%
CN(C(=O)Nc1cn(C)c(=O)c2ccccc12)c1ccccc1,,inactive: 2.7%
Cc1ccccc1C(=O)N1CCN(c2ccc([N+](=O)[O-])c(NCc3cccnc3)c2)CC1,"inconclusive: 17.8 µM [inhibitor, partial curve, poor fit]",
CCOC(=O)c1c(CSC(=N)N)n(-c2ccc(C)cc2)c2cc(Br)c(OC(C)=O)cc12,"inconclusive: 11.2 µM [inhibitor, single point]",
Cc1cc(C)nc(S/C=C/C(=O)c2ccccc2)n1,"inconclusive: 2.82 µM [inhibitor, partial curve]",
COc1ccc(Cl)cc1NC(=O)CN1c2ccccc2S(=O)(=O)c2ccccc21,,inactive: -1.45%
O=C(NN=C1CCCCCC1)c1ccc(Cl)s1,,inactive: 5%
CCn1cc2nc(SCc3cccc(OC)c3)n(Cc3ccc(Cl)cc3)c(=O)c2n1,,inactive: 3.81%
CCOc1ccc(OCCC(=O)NNC(=O)c2ccncc2)cc1,,inactive: 0.637%
O=[N+]([O-])c1ccc(O)c2ncccc12,"inconclusive: 15.8 µM [inhibitor, partial curve, poor fit]",
CC(C)NC(=O)c1onc(CSc2ccc(F)c(F)c2)c1C(=O)O,"inconclusive: 28.2 µM [inhibitor, single point]",
Cc1ccc(NC(=S)N(CCCN2CCCC2)Cc2cccn2Cc2ccc(Cl)cc2)cc1,"inconclusive: 22.4 µM [inhibitor, single point]",
S=c1nc(-c2ccccc2)n(CCCN2CCOCC2)c2c1CCCC2,,inactive: 8.24%
CC(=O)N1CCN(c2ccc(NCc3cccc4ccccc34)cc2)CC1,,inactive: -8.78%
COc1ccc(C)cc1NCc1cc(=O)oc2cc(-c3ccccc3)c(O)cc12,"inconclusive: 15.8 µM [inhibitor, partial curve, poor fit]",
O=C(O)CN1C(=O)/C(=C\c2cc(Br)ccc2OCc2ccccc2F)SC1=S,"inconclusive: 7.08 µM [inhibitor, partial curve, poor fit]",

Structure (SMILES),Potency,"activity change, negative = inhibition"
COc1cccc(CNc2nc3nc(C)c(Cl)c(C)n3n2)c1,,inactive: -0.635%
COc1cc(OC)c(NC(=O)Cn2c(=O)cc(C(F)(F)F)c3c(C)nn(C)c32)cc1Cl,,inactive: -3.68%
CC(=O)c1cccc(NC(=S)NC(=O)c2ccc(Cl)cc2)c1,"inconclusive: 28.2 µM [inhibitor, single point]",
Cc1ccc(C(C)C)c(OCC(=O)Nc2ccc3c(c2)nc(CN2CCCC2)n3C)c1,"inconclusive: 28.2 µM [inhibitor, partial curve, poor fit]",
CCN1CCN(Cc2ccc(NC(=O)c3ccc(C)c(NC(=O)c4cncc(-c5cccs5)c4)c3)cc2C(F)(F)F)CC1,"inconclusive: 4.47 µM [inhibitor, partial curve]",
COc1ccc(Cl)cc1NC(=S)NCCSc1ccc(C)cc1,"inconclusive: 10 µM [inhibitor, partial curve, poor fit]",
C=C(C)CNC(=S)NNC(=O)CCn1c2cc(Cl)ccc2c2ccc(Cl)cc21,,inactive: -7.63%
CCn1c(=S)[nH]c2scc(-c3cccs3)c2c1=O,"inconclusive: 10 µM [inhibitor, single point]",
C=C1C(=O)C2=CC1CCC(=O)C1(C)CCC(OC(C)=O)C(C)(C)C1CC2O (stereo unspecified),"inconclusive: 12.6 µM [inhibitor, partial curve, poor fit]",
Cc1cccc2sc(N(CCCN(C)C)C(=O)COc3ccc(Cl)cc3)nc12,"inconclusive: 12.6 µM [inhibitor, partial curve, poor fit]",
CCSc1nnc(NC(=O)C(C)Sc2nc3ccccc3[nH]2)s1 (stereo unspecified),,inactive: 7.62%
COc1ccc(-c2[nH]ncc2C(=O)NCc2ccc(F)cc2)cc1,,inactive: -1.89%
CC(=O)c1ccc(S(=O)(=O)N2CCN(CCOc3ccc(Br)cc3)CC2)cc1,,inactive: 5.18%
CCN1CCN(c2cc(C)c3cc(NC(=O)c4cc(Br)ccc4Cl)ccc3n2)CC1,"inconclusive: 28.2 µM [inhibitor, single point]",
CCN1/C(=C/c2ccc3cc(C)ccc3[n+]2C)Sc2ccc3sccc3c21,"inconclusive: 12.6 µM [inhibitor, partial curve, poor fit]",
CC/C(=N\NC(=S)NC(C)C)c1ccc(OC)c(OC)c1,"inconclusive: 28.2 µM [inhibitor, single point]",
CCOC(=O)C1=C(c2cccc(Oc3ccccc3)c2)NC(=S)NC1C (stereo unspecified),"inconclusive: 3.98 µM [inhibitor, partial curve, poor fit]",
O=C(CN1CCN(Cc2ccccc2)CC1)Nc1ccccc1-c1ccccc1,,inactive: -19.6%
COc1ccccc1CN1C(=NC(=O)CCC2CCCC2)SC2CS(=O)(=O)CC21 (stereo unspecified),"inconclusive: 28.2 µM [inhibitor, single point]",
CCOC(=O)c1c(C)n(C)c2ccc(OCC(O)CNCCc3ccccc3)cc12 (stereo unspecified),"inconclusive: 12.6 µM [inhibitor, single point]",
CN1CCN(c2ccccc2NC(=O)c2ccc(N3CCCCC3)c([N+](=O)[O-])c2)CC1,"inconclusive: 28.2 µM [inhibitor, single point]",
O=C(NCCN1C(=O)S/C(=C\c2ccc(Cl)c([N+](=O)[O-])c2)C1=O)C1=COCCO1,"inconclusive: 28.2 µM [inhibitor, single point]",
Cc1c(C)c2cccnc2c2ncccc12,active: 0.891 µM,
Cc1ccc(NC(=O)CSc2ncc3c(n2)-c2ccccc2N(C)S3(=O)=O)c(Cl)c1,"inconclusive: 1 µM [inhibitor, full curve]",

Structure (SMILES),Potency,"activity change, negative = inhibition"
CCN(CCCNC(=O)CSc1cc(=O)n(C)c2cc(Cl)ccc12)c1ccccc1,,inactive: 0.12%
NC(N)=Nc1nc(-c2ccccc2)c2cc(F)ccc2n1,"inconclusive: 8.91 µM [inhibitor, partial curve]",
CCc1nc2ccc(C(=O)NCCCn3ccnc3)cn2c1N(C)CCC(C)C,"inconclusive: 28.2 µM [inhibitor, single point]",
O=C(/C=C/c1ccc([N+](=O)[O-])cc1)c1cccs1,,inactive: -9.47%
CCOc1cc(C2C(C#N)=C(N)Oc3n[nH]c(-c4ccncc4)c32)cc([N+](=O)[O-])c1O (stereo unspecified),"inconclusive: 31.6 µM [inhibitor, single point]",
Cc1ccn2c(NC(=O)C(C)(C)Oc3ccc(Cl)cc3)c(-c3cccs3)nc2c1,"inconclusive: 22.4 µM [inhibitor, single point]",
CCCc1nnc(NC(=S)Nc2ccccc2)s1,"inconclusive: 0.447 µM [inhibitor, partial curve, poor fit]",
S=c1[nH]nc([C@@H]2C[C@H]2c2ccccc2)n1-c1ccccc1Cl,"inconclusive: 31.6 µM [inhibitor, partial curve, poor fit]",
Cc1occc1-c1nnc(SCC(=O)Nc2ccccn2)o1,"inconclusive: 10 µM [inhibitor, partial curve, poor fit]",
COc1ccc(NC(=O)/C(Cl)=C(/Cl)S(=O)Cc2ccccc2Cl)cn1 (stereo unspecified),active: 3.98 µM,
CC(C)c1ccc(C(=O)Nc2ccc(-c3nc4ccccc4s3)c(Cl)c2)cc1,,inactive: -1.21%
O=C(NNc1ccccc1Br)C(O)(c1cccc(C(F)(F)F)c1)c1cccc(C(F)(F)F)c1,"inconclusive: 12.6 µM [inhibitor, single point]",
CC(NC(=O)C1CC12CCC2)c1ccccc1 (stereo unspecified),,inactive: 1.87%
COc1ccc(-c2nc(Cn3c(SCc4cccc(F)c4)nc4cccnc43)c(C)o2)cc1,,inactive: -6.47%
CN(NS(C)(=O)=O)c1ncc(C(F)(F)F)cc1Cl,,inactive: -4.52%
COc1ccc(C)cc1S(=O)(=O)Nc1cccnc1,"inconclusive: 2.24 µM [inhibitor, full curve, poor fit]",
c1ccc(-c2ccc(OCCCNC3CCCC3)cc2)cc1,"inconclusive: 28.2 µM [inhibitor, single point]",
COc1ccccc1NC(=O)Cn1c(=O)n(CCc2ccccc2)c(=O)c2sc3ccccc3c21,,inactive: 10.8%
Cc1ccc(N(C)S(=O)(=O)c2ccc(-c3cnc(C4CC4)o3)cc2)cc1,"inconclusive: 0.501 µM [inhibitor, full curve, poor fit]",
COc1ccc(-n2sc3ccccc3c2=O)cc1,"inconclusive: 22.4 µM [inhibitor, single point]",
COCCn1c(=NC(=O)CSC(C)=O)sc2cc(F)ccc21,"inconclusive: 11.2 µM [inhibitor, partial curve, poor fit]",
Clc1ccccc1CNc1nc2ccccc2c2nc(-c3ccccc3)nn12,,inactive: -5.84%
COc1cc(C(=O)NC(=S)Nc2ccccc2N2CCCC2)cc(OC)c1OC,"inconclusive: 28.2 µM [inhibitor, single point]",

# — PubChem BioAssay AID624418 (National Center for Advancing Translational Sciences (NCATS), 2012)
